Reference: PubChem BioAssay AID493208 (National Center for Advancing Translational Sciences (NCATS), 2011)
About 340 (0.77%) of roughly 44,000 compounds were called active. Another 5% or so got no clear call; they are omitted. Calls follow the shape of the dose curve; as a rule, active = well fitted inhibition curve with a large enough effect; inconclusive = small, poorly fitted or top-dose-only effect; inactive = flat fitted curve, though single readings scatter. The list shows a part of the results.

test: Acumen qHTS Assay for Inhibitors of the mTORC1 Signaling Pathway in MEF (Tsc2-/-, p53-/-) Cells: Sytravon; settings: phospho-rpS6 immunofluorescence/PI, 24 h; series mostly up to 38.3 µM; activity change, negative = inhibition: at the top concentration;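 also: plate controls were DMSO for no effect and rapamycin for full effect; nearly all actives have a fitted effect of over 50% in size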
Outline: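 Tsc2-/-, p53-/- MEFs (empty-vector stable line) in DMEM + 10% FBS were treated with compounds 24 h at 37 degree Celsius, fixed, and immunostained for phospho-rpS6 (Alexa-488) with propidium iodide counterstain. Laser-scanning cytometry gave % positive cells, normalized against 7.5 nM rapamycin and DMSO.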

Activity change, negative = inhibition, inactive:
CCN(CC)CCCNC(=O)c1ccc2nc(N3CCCCC3)sc2c1 -16.8%
CCNC(=O)c1ccc2nc(CCc3ccccc3)oc2c1 -6.68%
COc1ccc(CCNC(=O)c2cc(C)nc3c2c(C)nn3-c2ccc(C)cc2)cc1OC -3.74%
Cc1n[nH]c(C)c1S(=O)(=O)N1CCCC(C(=O)Nc2ccc(Br)cc2)C1 (centres undefined) -7.11%
Cc1cc(Nc2ccccc2C)nc(-n2nc(C)cc2C)n1 -2.65%
CCCN(C(=O)c1cn(C)c(=O)c2ccccc12)c1ccccc1C -1.46%
O=C(CN1CCSc2ccccc21)NCc1ccccc1F -0.32%
CCOc1ccccc1C(=O)N(Cc1cc(OC)c(OC)c(OC)c1)C1CCS(=O)(=O)C1 (centres undefined) 3.97%
CCOc1ccccc1CN1CCc2nc(N3CCN(c4ccccc4F)CC3)ncc2C1 0%
COc1ccc2nc(N(Cc3cccnc3)C(=O)C3COc4ccccc4O3)sc2c1 (centres undefined) 0.194%
CCCOc1ccc(CN(C(=O)c2cc(=O)c3ccc(C)cc3o2)C2CCS(=O)(=O)C2)cc1 (centres undefined) -9.95%
COc1ccc(N2CCN(S(=O)(=O)CCNC(=O)C3CC(=O)N(c4ccccc4)C3)CC2)cc1 (centres undefined) -9.67%
COc1cc(C)ccc1OCCSc1nc(-c2cccc(C)c2)nc2cc(=O)[nH]n12 -2.59%
COc1cccc(C(=O)CC2(O)C(=O)Nc3ccc(Cl)cc32)c1 (centres undefined) -16.6%
Cc1nc(CC(=O)Nc2cc(Cl)ccc2C)cs1 3.76%
COc1ccc(C)cc1NC(=O)COCc1cc(-c2cccs2)on1 7.46%
CCOc1ccc(NC(=O)CSc2nc3c(c(=O)[nH]2)CCCC3)cc1 1.37%
COc1cc(C2c3c(oc4ccc(F)cc4c3=O)C(=O)N2c2nc(C)c(C)s2)cc(OC)c1OC (centres undefined) 2.76%
O=C(CCS(=O)(=O)c1cc(Br)cc2c1N(C(=O)C1CC1)CC2)N1CCN(c2ccc(F)cc2)CC1 -12%
Cc1ccc(N(C)C(=O)Cn2cnc3onc(-c4ccc(F)cc4)c3c2=O)cc1C 2.68%
Cc1ccc2ncc(C(=O)NCCc3ccc(S(N)(=O)=O)cc3)c(=O)n2c1 0.357%
COc1ccc(CCNC(=O)CCCn2c(=O)c3ccccc3n(Cc3ccc(C)cc3)c2=O)cc1OC 3.1%
Cc1nn2c(C)c(C(=O)N3CCN(c4ccccc4)CC3)cnc2c1-c1ccccc1 -11.4%
Cc1ccc(CCNC(=O)c2cc3c(=O)oc4ccccc4c3s2)cc1 -0.674%
COc1ccccc1OCCn1c(COc2cc(C)ccc2C)nc2ccccc21 -1.15%
COc1cc(NC(=O)CSc2nc3ccccc3nc2Cc2ccccc2OC)cc(OC)c1 6.45%
COc1cccc(CNC(=O)CNS(=O)(=O)c2ccc3nc(C)sc3c2)c1 -0.0917%
CCOc1ccccc1Nc1sc(C(=O)c2ccccc2)c(N)c1C(=O)NCCc1ccccc1 -1.27%
CCC(=O)Nc1ccc(C)cc1-c1nc2ccccc2n(CC(=O)Nc2ccccc2Cl)c1=O -12.7%
COc1cc(OC)cc(C(=O)Nc2ccc3oc(-c4ccccc4C)nc3c2)c1 3.03%
COc1ccc(NC(=O)Cn2c(=O)n(CC3CCCO3)c(=O)c3ccccc32)c(OC)c1 (centres undefined) 1.92%
COc1cccc(-c2cc(C(=O)Nc3cc(C)nn3-c3ccccc3)no2)c1 -14.1%
Cc1ccccc1NC(=O)c1c(C)oc2ccc(O)c(CN3CCCC3)c12 2.73%
CC(C)CNc1nc(NC(C)(C)C)nc(Oc2ccc(=O)n(-c3ccccc3)n2)n1 0.564%
COc1ccc2c(c1)c1c(c(=O)n(CCc3ccccc3)c(=O)n1Cc1ccccc1)n2C -0.455%
O=C(c1cc2ccc3cccnc3c2[nH]1)N1CCN(c2cccc(C(F)(F)F)c2)CC1 -9.44%
Cc1ccc(NC(=O)c2oc3ccc(S(=O)(=O)N4CCCCC4)cc3c2C)cc1C 3.27%
Cc1ccc(C)c2sc(NC(=O)c3ccc(S(=O)(=O)N4CCCC4)cc3)nc12 3.19%
CC(=O)N1CCOc2cc(S(=O)(=O)NCc3ccc(C)cc3)c(C)cc21 4.84%
Cc1c(CNCc2ccc(OC(C)C)cc2)c(C(=O)O)c(C)n1Cc1ccc(Cl)cc1 -0.225%
CCN1CCN(CCCNC(=O)c2cc3c(=O)n(CC)c4ccccc4c3s2)CC1 0.93%
COc1ccc(N(C(=O)c2ccccc2F)S(=O)(=O)c2ccc3c(c2)n(C)c(=O)n3C)cc1 -3.17%
CCOc1ccc(CNC(=O)c2ccc3c(c2)nc2n3CCOC2)cc1 0.305%
COc1ccc(-c2cc(C(F)(F)F)nc(SCC(=O)N(C)Cc3ccccc3)n2)cc1OC -5.38%
CCC(C)(C)NS(=O)(=O)c1cc(-c2cc(C)no2)ccc1C 2.28%
CCN1c2ccccc2-c2nc(SCC(=O)Nc3cccc(C(F)(F)F)c3)ncc2S1(=O)=O -9.21%
COc1cc(O)ccc1C1CC(=O)Nc2c1c(=O)nc(SCc1ccccc1C)n2C (centres undefined) 0.262%
CCOC(=O)c1cccc(NC(=O)c2cc(S(=O)(=O)N3CCCCCC3)cn2C)c1 0.44%
COc1ccc(CNc2oc(-c3ccc(COc4ccc(Cl)cc4)o3)nc2C#N)cc1 0%
Cc1ccc(C)c(CN2C(=O)c3ccccc3S(=O)c3ccc(C(=O)N4CCC(C)CC4)cc32)c1 (centres undefined) 5.49%
COc1ccc(CNC(=O)c2c(Nc3ccc(OC)cc3OC)sc(C(=O)c3ccc(Cl)cc3)c2N)cc1 -8.43%
CCOC(=O)CSc1nc2sc3c(c2c(=O)n1Cc1ccccc1)CCC(C(C)(C)C)C3 (centres undefined) 14.6%
Cc1ccc(CNC(=O)C2CCC(CNS(=O)(=O)c3ccc4c(c3)CCCC(=O)N4)CC2)cc1 (centres undefined) 3.54%
CC(C)OCCCNC(=O)CCCn1c(=O)[nH]c2ccsc2c1=O 9.04%
CCOc1ccc(CNC(=O)c2cc(=O)[nH]c3ccc(S(=O)(=O)N4CCCCC4)cc23)cc1 12.1%
Cc1cc(C)cc(Nc2cc(C(=O)NCCCN(Cc3ccccc3)C(C)C)c3ccccc3n2)c1 -1.28%
COc1ccc(CN(C(=O)c2cc3ccccc3oc2=O)C2CCS(=O)(=O)C2)cc1 (centres undefined) -1.69%
O=C(Nc1cccc(-c2nc3ccccc3o2)c1)c1cc([N+](=O)[O-])ccc1N1CCOCC1 2.7%
Cc1cccc(C)c1OCCSc1nc2ccccc2n1CC(=O)O 5.82%
COc1ccc(N2CCN(S(=O)(=O)c3csc(C(N)=O)c3)CC2)cc1 -9.16%
CCN(Cc1ccccc1)C(=O)Cn1c(=O)n(-c2ccc(F)c(Cl)c2)c(=O)c2sc3ccccc3c21 -17.2%
COc1ccc(-c2nc3c4cnn(-c5ccccc5F)c4ncn3n2)cc1 -8.45%
CC(=O)Nc1ccc(NS(=O)(=O)c2ccc3c(c2)CC(C)N3C(=O)C2CCC2)cc1 (centres undefined) -8.42%
COC(=O)CC1Oc2ccc(F)cc2-n2cc(-c3ccc(Cl)cc3)nc21 (centres undefined) -35.7%
COc1ccc(NC(=O)CN2CCCN(S(=O)(=O)c3ccc(Br)cc3)CC2)c(OC)c1 1.39%
CCOC(=O)c1ccc(NC(=O)CCS(=O)(=O)c2ccc(C)cc2)cc1 -3.09%
Cc1cccc(-c2nc(CCNC(=O)c3ccco3)cs2)c1 -3.36%
Cc1ccc2oc(C(=O)Nc3ccc(S(=O)(=O)N4CCCCCC4)cc3)cc(=O)c2c1 5.82%
CCOC(=O)c1cc(C)n(CC2CCC(C(=O)Nc3ccc(OC)c(OC)c3)CC2)c1C (centres undefined) -7.65%
CCc1ccc(NC(=O)c2sc(-n3nc(C)c(Cc4ccc5c(c4)OCO5)c3C)nc2C)cc1 -0.368%
Cc1cc(C)cc(NS(=O)(=O)c2c(C)nc3scc(C)n3c2=O)c1 0.346%
CCOc1ccccc1NC(=O)Cn1c(=O)n(-c2ccc(C)c(C)c2)c(=O)c2oc3ccccc3c21 -1.34%
O=C(Oc1ccccc1F)c1nc(SCc2ccccc2F)ncc1Cl 2.81%
COc1ccccc1NC(=O)Cn1nc2c3cc(F)ccc3n(Cc3cccc(C)c3)cc-2c1=O -0.988%
CCN1CCC(N(Cc2ccc3c(c2)OCO3)C(=O)Nc2cccc(C)c2C)CC1 -19.7%
COc1ccc(Nc2ncc3c(n2)CCN(Cc2cccc(F)c2F)C3)c(OC)c1 0%
CC(=O)N1CCCc2cc(S(=O)(=O)NCc3ccccc3Cl)ccc21 -8.42%
CCN(Cc1ccccc1)C(=O)C1CCC(CNS(=O)(=O)c2ccc3c(c2)CCCC(=O)N3)CC1 (centres undefined) -4.54%
Cc1ccc(C)c(NC(=O)c2cc(S(=O)(=O)N3CCN(c4cccc(Cl)c4)CC3)ccc2F)c1 11.4%
CCc1ccc(Nc2nc3c(S(=O)(=O)c4ccc(C)cc4)nnn3c3ccsc23)cc1 -11.2%
Cc1ccc(S(=O)(=O)c2nnn3c2nc(N2CCCC(C)C2)c2cc(Cl)ccc23)cc1C (centres undefined) 0.605%
CCN(C(=O)Cn1cc(S(=O)(=O)N2CCN(c3ccccc3F)CC2)c2ccccc2c1=O)c1ccc(C)c(C)c1 3.33%
Cc1ccc(NC(=O)Cn2c(=O)n(-c3ccccc3)c(=O)c3ccc(C(=O)NCc4ccc5c(c4)OCO5)cc32)cc1 -9.18%
Oc1c(C(c2ccccc2Cl)N2CCC(O)CC2)sc2nc(-c3ccco3)nn12 (centres undefined) -0.303%
CCOc1ccc(S(=O)(=O)NCc2ccc3c(c2)CCN3C(=O)c2ccc(C)cc2)cc1 6.11%
COc1ccc(S(=O)(=O)Nc2cc(-c3cn4ccc(C)cc4n3)ccc2C)cc1OC 3.32%
Cc1nnc2c3ccccc3nc(Nc3ccccc3C(=O)O)n12 2.95%
CCn1ccc2cc(S(=O)(=O)N3CCC(C(=O)NCC(C)c4ccccc4)CC3)ccc21 (centres undefined) -7.59%
O=C(COc1ccc(Cl)cc1)Nc1ccc2nc(SCC(=O)N3CCOCC3)sc2c1 -9.88%
Cc1ccc(NC(=O)CSc2nc3ccccc3nc2Cc2ccccc2)c(Cl)c1 -20.4%
Cc1ccc(Cl)cc1NC(=O)c1nnn(Cc2ccccc2)c1N -3.9%
Cc1ccc(-n2ncc(C(=O)NCc3ccccn3)c2C2CCN(C(=O)OC(C)(C)C)CC2)cc1C 2.41%
COc1cccc(CNC(=O)C2CCN(Cc3cc4ccccc4n3Cc3ccccc3)CC2)c1OC -7.08%
Cc1ccc(CN2c3ccccc3-c3nc(SCC(=O)NCCc4ccccc4)ncc3S2(=O)=O)cc1 6.35%
